The list shows a part of the results.
Each molecule was assayed on HepG2 (assay: cytotoxicity call (relative viability < 0.9)). Details: 10 µM.

Question: For `COc1ccc([Si](C)(C)[C@H]2[C@H](CC(=O)N3CCC[C@H]3CO)O[C@@]3(C(=O)N(Cc4cccc(N5C(=O)COc6ccccc65)c4)c4ccccc43)[C@@H]2C)cc1`, which cytotoxicity call is on record?
Answer: inactive

Question: With `CCOC(=O)COc1ccc(-c2nn[nH]n2)cc1` as the molecule, how does the cytotoxicity call read?
Answer: inactive

Question: `COc1ccc(C2=N[C@@H](c3ccc(Cl)cc3)[C@@H](c3ccc(Cl)cc3)N2C(=O)N2CCNC(=O)C2)c(OC(C)C)c1` was tested. Which cytotoxicity call did it give?
Answer: active

Question: `CNC[C@@H]1Oc2ccc(NC(=O)CCN3CCOCC3)cc2CC(=O)N([C@@H](C)CO)C[C@@H]1C` was tested. Which cytotoxicity call did it give?
Answer: inactive

Question: How did the cytotoxicity call turn out when `C[C@@H]1CN([C@H](C)CO)C(=O)c2cc(NC(=O)Nc3cccc4ccccc34)ccc2O[C@@H](C)CCCCO[C@@H]1CN(C)S(=O)(=O)c1ccc(F)cc1` was run?
Answer: inactive

Question: With `N[C@H]1CCCN(c2ncccn2)C1` as the molecule, how does the cytotoxicity call read?
Answer: inactive

Question: For `CC(C)(CO)c1cc2cc(NC(=O)C3(c4ccc5c(c4)OC(F)(F)O5)CC3)c(F)cc2n1C[C@@H](O)CO`, which cytotoxicity call is on record?
Answer: inactive

Question: For `C[C@@H]1CN([C@@H](C)CO)C(=O)c2cc(NC(=O)CCC(F)(F)F)ccc2O[C@@H](C)CCCCO[C@H]1CN(C)CC1CCCCC1`, which cytotoxicity call is on record?
Answer: inactive

Question: Which cytotoxicity call does the source give for `C[C@@H]1CCCCO[C@H](CN(C)C(=O)Nc2ccc(C(F)(F)F)cc2)[C@@H](C)CN([C@H](C)CO)C(=O)c2cc(NC(=O)Nc3ccc4c(c3)OCO4)ccc2O1` here?
Answer: inactive

Question: `CC(C)N1C[C@H](CNCc2ccc(Oc3ccccc3)cc2)Oc2c(NC(=O)c3ccncc3)cccc2C1=O` was tested. Which cytotoxicity call did it give?
Answer: inactive

Question: For `COc1ccc(NC(=O)N(C)C[C@@H]2OCCCC[C@@H](C)Oc3ccc(NC(=O)CCCCCC(=O)Nc4ccccc4N)cc3C(=O)N([C@H](C)CO)C[C@@H]2C)cc1`, which cytotoxicity call is on record?
Answer: inactive

Question: Which cytotoxicity call does the source give for `C[C@@H]1CCCCO[C@H](CN(C)C(=O)Nc2ccccc2)[C@H](C)CN([C@@H](C)CO)C(=O)c2cc(NC(=O)Nc3ccc(C(F)(F)F)cc3)ccc2O1` here?
Answer: inactive

Question: With `CC(C)=CCOc1cc(C)cc2oc(=O)cc(-c3ccccc3)c12` as the molecule, how does the cytotoxicity call read?
Answer: inactive

Question: `C[C@@H]1CN([C@@H](C)CO)C(=O)c2cc(NC(=O)Nc3ccc(C(F)(F)F)cc3)ccc2O[C@H]1CN(C)Cc1ccc2c(c1)OCO2` was tested. Which cytotoxicity call did it give?
Answer: active

Question: For `C[C@@H]1CN([C@H](C)CO)C(=O)Cc2cc(NC(=O)C3CCCCC3)ccc2O[C@H]1CN(C)C(=O)Nc1ccc(C(F)(F)F)cc1`, which cytotoxicity call is on record?
Answer: inactive

Question: For `C=CC(=O)N1C[C@@H]2CC[C@H](O)[C@@H]2C1`, which cytotoxicity call is on record?
Answer: inactive

Question: How did the cytotoxicity call turn out when `C[C@H]1CCCCO[C@H](CN(C)CC2CCCCC2)[C@@H](C)CN([C@@H](C)CO)C(=O)c2cc(NC(=O)C3CCCCC3)ccc2O1` was run?
Answer: active

Question: For `C[C@@H]1CN([C@@H](C)CO)C(=O)c2cc(NC(=O)c3ccccc3)ccc2O[C@@H](C)CCCCO[C@H]1CN(C)C(=O)Nc1cccc2ccccc12`, which cytotoxicity call is on record?
Answer: active

Question: How did the cytotoxicity call turn out when `C[C@@H]1CCCCO[C@@H](CN(C)Cc2ccc(Cl)c(Cl)c2)[C@@H](C)CN([C@@H](C)CO)C(=O)c2cc(NC(=O)Nc3ccc4c(c3)OCO4)ccc2O1` was run?
Answer: active

Question: For `CC(=O)N[C@@H](CC(=O)O)C(=O)N[C@@H](CCC(=O)O)C(=O)O`, which cytotoxicity call is on record?
Answer: inactive

Question: For `Cc1ccc(S(=O)(=O)Nc2ccc3c(c2)C(=O)N([C@@H](C)CO)C[C@H](C)[C@H](CN(C)S(=O)(=O)c2ccc(F)cc2)OCCCC[C@@H](C)O3)cc1`, which cytotoxicity call is on record?
Answer: inactive

Question: Which cytotoxicity call does the source give for `Cc1ccc(S(=O)(=O)N(C)C[C@H]2Oc3c(NC(=O)c4ccncc4)cccc3C(=O)N([C@H](C)CO)C[C@H]2C)cc1` here?
Answer: inactive

Question: How did the cytotoxicity call turn out when `C[C@H](CO)N1C[C@H](C)[C@H](CN(C)S(=O)(=O)c2ccccc2)OCCCC[C@H](C)Oc2ccc(NC(=O)Nc3ccccc3)cc2C1=O` was run?
Answer: inactive

Question: How did the cytotoxicity call turn out when `Cc1cc(O)n(C[C@H]2CCCO2)c(=O)c1C#N` was run?
Answer: inactive

Question: With `CC(C)NC(=O)Nc1cccc2c1O[C@@H](CN(C)S(=O)(=O)c1ccc(Cl)cc1)[C@@H](C)CN([C@@H](C)CO)C2=O` as the molecule, how does the cytotoxicity call read?
Answer: inactive

Question: For `Cc1noc(C)c1NC(=O)N(C)C[C@@H]1Oc2ccc(NC(=O)C3CC3)cc2C(=O)N([C@@H](C)CO)C[C@H]1C`, which cytotoxicity call is on record?
Answer: inactive

Question: `CCS(=O)(=O)N1CCn2cc(Cn3cncn3)nc2C1` was tested. Which cytotoxicity call did it give?
Answer: inactive

Question: How did the cytotoxicity call turn out when `COc1ccc(S(=O)(=O)Nc2ccc3c(c2)[C@H]2C[C@@H](CC(=O)NCC4CC4)O[C@H](CO)[C@H]2O3)cc1` was run?
Answer: inactive

Question: For `C[C@@H]1CCCCO[C@@H](CN(C)Cc2ccncc2)[C@@H](C)CN([C@H](C)CO)C(=O)c2cc(NC(=O)Nc3ccc4c(c3)OCO4)ccc2O1`, which cytotoxicity call is on record?
Answer: inactive

These molecules were tested on S. aureus RN4220 (assay: growth inhibition call (relative growth <= 0.2)). Details: 50 µM.

Question: For `COc1ccc(S(=O)(=O)N(C)C[C@@H]2Oc3ncc(-c4ccncc4)cc3C(=O)N([C@@H](C)CO)C[C@H]2C)cc1`, which growth inhibition call is on record?
Answer: inactive

Question: `C[C@@H]1CN([C@H](C)CO)S(=O)(=O)c2ccc(C#Cc3ccc(F)cc3)cc2O[C@H]1CN(C)S(=O)(=O)c1ccc(F)cc1` was tested. Which growth inhibition call did it give?
Answer: inactive

Question: With `CO[C@H](CN(C)S(=O)(=O)c1ccc(C)cc1)[C@H](C)CN([C@@H](C)CO)S(=O)(=O)c1cccc(Cl)c1` as the molecule, how does the growth inhibition call read?
Answer: inactive

Question: How did the growth inhibition call turn out when `C[C@@H]1CCCCO[C@H](CN(C)C(=O)NC2CCCCC2)[C@H](C)CN([C@H](C)CO)C(=O)c2cc(NC(=O)Nc3cccc4ccccc34)ccc2O1` was run?
Answer: inactive

Question: How did the growth inhibition call turn out when `C[C@H](CO)N1C[C@H](C)[C@H](CN(C)C(=O)Nc2ccc(C(F)(F)F)cc2)Oc2ccc(NC(=O)Nc3ccc(F)cc3)cc2C1=O` was run?
Answer: inactive

Question: With `C[C@@H]1CN([C@@H](C)CO)C(=O)c2ccccc2-c2ccccc2CO[C@@H]1CN(C)C(=O)Nc1cccc(C(F)(F)F)c1` as the molecule, how does the growth inhibition call read?
Answer: inactive

Question: How did the growth inhibition call turn out when `COc1ccc(-c2cnc3c(c2)C(=O)N([C@H](C)CO)C[C@H](C)[C@H](CN(C)S(=O)(=O)c2cccc(OC)c2)O3)cc1` was run?
Answer: inactive

Question: For `CN(C)CC(=O)N[C@H]1CC[C@H](CCNC(=O)C2CCC2)O[C@H]1CO`, which growth inhibition call is on record?
Answer: inactive

Question: `C[C@H](CO)N1C[C@H](C)[C@H](CN(C)S(=O)(=O)c2ccc(F)cc2)Oc2ccc(NC(=O)c3ccncc3)cc2CC1=O` was tested. Which growth inhibition call did it give?
Answer: inactive

Question: Which growth inhibition call does the source give for `O=C(C[C@H]1C[C@H]2c3cc(NC(=O)NC4CCCC4)ccc3O[C@H]2[C@H](CO)O1)NCCN1CCCCC1` here?
Answer: inactive

Question: With `N[C@H](Cc1cnc[nH]1)C(=O)O` as the molecule, how does the growth inhibition call read?
Answer: inactive

Question: How did the growth inhibition call turn out when `COc1ccc([Si](C)(C)[C@H]2[C@H](CC(=O)N3CCC[C@H]3CO)O[C@@]3(C(=O)N(Cc4cccc(N5C(=O)COc6ccccc65)c4)c4ccccc43)[C@@H]2C)cc1` was run?
Answer: inactive

Question: How did the growth inhibition call turn out when `CCOC(=O)COc1ccc(-c2nn[nH]n2)cc1` was run?
Answer: inactive

Question: With `COc1ccc(C2=N[C@@H](c3ccc(Cl)cc3)[C@@H](c3ccc(Cl)cc3)N2C(=O)N2CCNC(=O)C2)c(OC(C)C)c1` as the molecule, how does the growth inhibition call read?
Answer: active

Question: With `CNC[C@@H]1Oc2ccc(NC(=O)CCN3CCOCC3)cc2CC(=O)N([C@@H](C)CO)C[C@@H]1C` as the molecule, how does the growth inhibition call read?
Answer: inactive

Question: For `C[C@@H]1CN([C@H](C)CO)C(=O)c2cc(NC(=O)Nc3cccc4ccccc34)ccc2O[C@@H](C)CCCCO[C@@H]1CN(C)S(=O)(=O)c1ccc(F)cc1`, which growth inhibition call is on record?
Answer: inactive

Question: With `N[C@H]1CCCN(c2ncccn2)C1` as the molecule, how does the growth inhibition call read?
Answer: inactive

Question: How did the growth inhibition call turn out when `CC(C)(CO)c1cc2cc(NC(=O)C3(c4ccc5c(c4)OC(F)(F)O5)CC3)c(F)cc2n1C[C@@H](O)CO` was run?
Answer: inactive

Question: For `C[C@@H]1CN([C@@H](C)CO)C(=O)c2cc(NC(=O)CCC(F)(F)F)ccc2O[C@@H](C)CCCCO[C@H]1CN(C)CC1CCCCC1`, which growth inhibition call is on record?
Answer: inactive

Question: With `C[C@@H]1CCCCO[C@H](CN(C)C(=O)Nc2ccc(C(F)(F)F)cc2)[C@@H](C)CN([C@H](C)CO)C(=O)c2cc(NC(=O)Nc3ccc4c(c3)OCO4)ccc2O1` as the molecule, how does the growth inhibition call read?
Answer: inactive

Question: `CC(C)N1C[C@H](CNCc2ccc(Oc3ccccc3)cc2)Oc2c(NC(=O)c3ccncc3)cccc2C1=O` was tested. Which growth inhibition call did it give?
Answer: inactive

Question: Which growth inhibition call does the source give for `COc1ccc(NC(=O)N(C)C[C@@H]2OCCCC[C@@H](C)Oc3ccc(NC(=O)CCCCCC(=O)Nc4ccccc4N)cc3C(=O)N([C@H](C)CO)C[C@@H]2C)cc1` here?
Answer: inactive

Question: `C[C@@H]1CCCCO[C@H](CN(C)C(=O)Nc2ccccc2)[C@H](C)CN([C@@H](C)CO)C(=O)c2cc(NC(=O)Nc3ccc(C(F)(F)F)cc3)ccc2O1` was tested. Which growth inhibition call did it give?
Answer: inactive

Question: For `CC(C)=CCOc1cc(C)cc2oc(=O)cc(-c3ccccc3)c12`, which growth inhibition call is on record?
Answer: inactive

Question: How did the growth inhibition call turn out when `C[C@@H]1CN([C@@H](C)CO)C(=O)c2cc(NC(=O)Nc3ccc(C(F)(F)F)cc3)ccc2O[C@H]1CN(C)Cc1ccc2c(c1)OCO2` was run?
Answer: inactive

Question: For `C[C@@H]1CN([C@H](C)CO)C(=O)Cc2cc(NC(=O)C3CCCCC3)ccc2O[C@H]1CN(C)C(=O)Nc1ccc(C(F)(F)F)cc1`, which growth inhibition call is on record?
Answer: inactive

Question: With `C=CC(=O)N1C[C@@H]2CC[C@H](O)[C@@H]2C1` as the molecule, how does the growth inhibition call read?
Answer: inactive

Question: How did the growth inhibition call turn out when `C[C@H]1CCCCO[C@H](CN(C)CC2CCCCC2)[C@@H](C)CN([C@@H](C)CO)C(=O)c2cc(NC(=O)C3CCCCC3)ccc2O1` was run?
Answer: inactive

Question: `C[C@@H]1CN([C@@H](C)CO)C(=O)c2cc(NC(=O)c3ccccc3)ccc2O[C@@H](C)CCCCO[C@H]1CN(C)C(=O)Nc1cccc2ccccc12` was tested. Which growth inhibition call did it give?
Answer: inactive

Question: With `C[C@@H]1CCCCO[C@@H](CN(C)Cc2ccc(Cl)c(Cl)c2)[C@@H](C)CN([C@@H](C)CO)C(=O)c2cc(NC(=O)Nc3ccc4c(c3)OCO4)ccc2O1` as the molecule, how does the growth inhibition call read?
Answer: inactive

Question: With `CC(=O)N[C@@H](CC(=O)O)C(=O)N[C@@H](CCC(=O)O)C(=O)O` as the molecule, how does the growth inhibition call read?
Answer: inactive

Question: `Cc1ccc(S(=O)(=O)Nc2ccc3c(c2)C(=O)N([C@@H](C)CO)C[C@H](C)[C@H](CN(C)S(=O)(=O)c2ccc(F)cc2)OCCCC[C@@H](C)O3)cc1` was tested. Which growth inhibition call did it give?
Answer: inactive

Question: `Cc1ccc(S(=O)(=O)N(C)C[C@H]2Oc3c(NC(=O)c4ccncc4)cccc3C(=O)N([C@H](C)CO)C[C@H]2C)cc1` was tested. Which growth inhibition call did it give?
Answer: inactive

Question: With `C[C@H](CO)N1C[C@H](C)[C@H](CN(C)S(=O)(=O)c2ccccc2)OCCCC[C@H](C)Oc2ccc(NC(=O)Nc3ccccc3)cc2C1=O` as the molecule, how does the growth inhibition call read?
Answer: inactive

Question: For `Cc1cc(O)n(C[C@H]2CCCO2)c(=O)c1C#N`, which growth inhibition call is on record?
Answer: inactive
